In all, about 310,000 compounds went through this assay and about 2,200 (0.71%) showed an effect of 50% or more. The effect is printed as a negative number. The list shows a part of the results.
Each compound was assayed against human ether-à-go-go-related gene (hERG) potassium channel (human, UniProt Q12809) (assay: primary screen, population patch clamp on CHO cells stably expressing hERG).
human ether-à-go-go-related gene (hERG) potassium channel, sequence (Q12809 whole entry, looked up): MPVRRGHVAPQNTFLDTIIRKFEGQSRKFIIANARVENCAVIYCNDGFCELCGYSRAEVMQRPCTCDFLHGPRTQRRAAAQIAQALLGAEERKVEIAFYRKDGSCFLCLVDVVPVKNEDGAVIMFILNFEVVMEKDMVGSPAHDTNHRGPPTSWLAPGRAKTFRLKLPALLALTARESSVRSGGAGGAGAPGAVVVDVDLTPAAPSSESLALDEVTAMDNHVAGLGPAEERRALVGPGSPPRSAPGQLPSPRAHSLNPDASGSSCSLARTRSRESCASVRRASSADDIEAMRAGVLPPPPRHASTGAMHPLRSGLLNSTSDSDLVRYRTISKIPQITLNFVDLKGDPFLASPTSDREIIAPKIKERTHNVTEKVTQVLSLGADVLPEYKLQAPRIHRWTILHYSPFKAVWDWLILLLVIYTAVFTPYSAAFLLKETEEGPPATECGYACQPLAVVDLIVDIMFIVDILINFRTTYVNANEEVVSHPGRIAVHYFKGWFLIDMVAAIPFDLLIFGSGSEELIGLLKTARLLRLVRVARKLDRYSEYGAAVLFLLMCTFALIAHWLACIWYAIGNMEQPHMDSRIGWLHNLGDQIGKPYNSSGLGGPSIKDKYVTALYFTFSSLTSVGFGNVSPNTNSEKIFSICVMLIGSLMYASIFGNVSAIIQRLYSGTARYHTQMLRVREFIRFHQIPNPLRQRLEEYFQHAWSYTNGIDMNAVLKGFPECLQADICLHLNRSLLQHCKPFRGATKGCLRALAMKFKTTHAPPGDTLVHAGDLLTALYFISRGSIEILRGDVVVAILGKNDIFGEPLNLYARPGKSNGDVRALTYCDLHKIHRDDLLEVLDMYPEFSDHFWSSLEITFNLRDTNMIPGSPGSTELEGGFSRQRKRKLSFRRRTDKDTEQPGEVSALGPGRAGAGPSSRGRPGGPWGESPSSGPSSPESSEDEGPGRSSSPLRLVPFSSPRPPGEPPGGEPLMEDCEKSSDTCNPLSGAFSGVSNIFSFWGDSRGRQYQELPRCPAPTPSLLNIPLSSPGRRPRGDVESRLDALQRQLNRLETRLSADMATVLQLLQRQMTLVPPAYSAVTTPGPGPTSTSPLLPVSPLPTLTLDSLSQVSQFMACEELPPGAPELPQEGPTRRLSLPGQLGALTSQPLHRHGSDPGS

Structure (SMILES) | hERG current change (%, negative = inhibition) at 1uM [%]
COc1ccc(C)c2sc(=NC(=O)c3ccccc3)n(C)c12 | 18.2
CCOC(=O)NC(=O)CSc1nc2ccc([N+](=O)[O-])cc2[nH]1 | 11.5
CSc1ccccc1NC(=O)CSc1n[nH]c(N)n1 | 8.8
COc1cc(/C=C/c2nc3ccccc3c(=O)[nH]2)cc(OC)c1OC | 11.6
Cc1ccccc1OCC(=O)Nc1cnn(CCCC(=O)O)c1 | 13.1
O=C(NNC(=O)c1cc(Br)ccc1Cl)c1csc(N2CCOCC2)n1 | 4.13
Cc1cc(NC(=O)CN2C(=O)S/C(=C\c3ccccc3)C2=O)no1 | -4.21
CC(NCC(=O)Nc1cc(S(=O)(=O)N2CCOCC2)ccc1Cl)c1ccc(Cl)cc1Cl (stereo not shown) | 8.12
CCc1[nH]nc(C(=O)N/N=C/c2ccncc2)c1C | -18.2
C/C(=N\NC(=O)c1nn(C)c(C)c1Br)c1ccc(NC(=O)C2CCCC2)cc1 | 14.7
O=C(c1ccc(Cl)nc1)N1CCN(S(=O)(=O)c2ccc(Cl)cc2)CC1 | -5.09
COc1ccc2c(Cl)c(C(=O)NCCCn3ccnc3)sc2c1 | 6.5
CCCN1CCN(C(=O)CCn2c(=O)c3cccn3c3cccnc32)CC1 | 2.22
COc1ccccc1NC(=O)CN1C(=O)COc2ccc(C)cc21 | 8.28
COc1cccc(CNC(=O)CCNS(=O)(=O)c2ccc3[nH]c(=O)oc3c2)c1 | 7.21
COc1ccc(OC)c(N(C(=O)c2ccco2)C(C(=O)NC2CCCC2)c2ccc(N3CCOCC3)cc2)c1 (stereo not shown) | 8.75
CC(=O)Nc1ccc(C(=O)Nc2cccc(S(=O)(=O)NC3=NCCC3)c2)cc1 | 3.54
CCOc1ccc(C2/C(=C(\O)c3ccc4c(c3)OCCO4)C(=O)C(=O)N2Cc2cccnc2)cc1OCC (stereo not shown) | 15.8
C/C(=N/OCO/N=C(\C)c1ccccc1)c1ccccc1 | 19.7
CSCC[C@H](NC(=O)OC(C)(C)C)C(=O)N1CCC(C(=O)NCC(=O)Nc2ccc(C)cc2)CC1 | 11.9
O=C(c1cc(-c2ccc(O)cc2)on1)N1CCCc2ccccc21 | 8.9
Cn1c(SCC(=O)N/N=C/C=C/c2ccco2)nc2ccccc21 | -1.47
O=C1CC(N2CCC(c3nc4ccccc4o3)CC2)C(=O)N1c1cc(Cl)cc(Cl)c1 (stereo not shown) | -3.71
CC1(C)Cc2ccccc2C(COc2ccccc2)=N1.Cl | 18.4
Fc1ccc(NC(=S)N2CCN(C/C=C/c3ccccc3)CC2)c(F)c1 | 13
O=C(CSc1nnc(NC(=O)c2ccccc2[N+](=O)[O-])s1)NCc1ccco1 | 9.5
COc1ccc(C2=NN(C(=O)c3cccs3)C(O)(C(F)(F)F)C2)cc1 (stereo not shown) | 4.33
Cc1cc(Cl)ccc1OC(C)C(=O)OCC(=O)Nc1ccc2[nH]c(=O)[nH]c2c1 (stereo not shown) | -3.17

Structure (SMILES) | hERG current change (%, negative = inhibition) at 1uM [%]
CCn1nc(C(=O)OCc2c(C)noc2C)c2ccccc2c1=O | 0.701
CCCC(C)C(=O)Nc1cc([N+](=O)[O-])ccc1Cl (stereo not shown) | 16.8
CN(CC(=O)Nc1ccccc1Br)C(=O)c1ccc(COc2ccccc2)cc1 | 9.47
Cn1c(SCC(=O)N/N=C/C=C\c2ccco2)nc2ccccc21 | -13.7
COc1cccc(C2=NOC(C(=O)NCc3ccccc3)C2)c1 (stereo not shown) | 2.78
Nc1ccc(S(=O)(=O)N2CCCc3ccccc32)cc1 | -1.98
C=C1CN(CC(=O)OC)S(=O)(=O)c2ccccc21 | 8.37
Cc1cc(=O)oc2cc(OCC(=O)NCCCn3ccnc3)ccc12 | 10.4
c1ccc(N2CCN(c3cnccn3)CC2)nc1 | 19.8
COC(=O)C1=C(C(=O)OC)N2C=CC=CC2(C)C(C(=O)OC)=C1C(=O)OC (stereo not shown) | 1.82
Cc1ccc(NC(=O)c2ccccc2OCC(=O)Nc2ccccc2F)cc1S(=O)(=O)N(C)C | 9.6
CC(C)C[C@@H](CN=[N+]=[N-])N1CCN(C)CCC1=O | 13.1
O=C(CNc1ccccc1)NNC1=NCCC1 | -0.636
COc1ccc(N(CC(=O)Nc2ccc3c(c2)OCCO3)S(=O)(=O)c2c(C)nn(C)c2C)cc1 | 3.03
CCOc1ccc2oc(=O)cc(CN3CCN(Cc4ccccc4)CC3)c2c1 | -15.5
Cc1ccc(CN(Cc2ccccc2)C(=S)NCC(=O)N2CCC3(CC2)OCCO3)o1 | 6.68
COc1ccc(CCNC(=O)CCCn2c(=O)[nH]c3cc(OC)c(OC)cc3c2=O)cc1OC | 1.1
COc1ccc(Sc2nnc(Cc3ccccc3)c3ccccc23)cc1 | -8.91
COC(=O)C1=C(c2cccc(OC)c2OC)C[C@@H]2CC[C@H]1N2C(=O)N1CCCCC1 | 12.2
O=C(CN1C(=O)c2cccc3cccc1c23)NCc1ccccn1 | 15.5
Cn1ncc(Br)c1C(=O)NC1CCCC1 | 11.1
COc1cc(/C=C(/NC(=O)c2ccccc2)C(=O)Nc2ccc(O)cc2)c([N+](=O)[O-])cc1OC | 11.2
COc1cc(Nc2ncnc(N)n2)cc(OC)c1OC | 11.2
CC(=O)OCC(=O)Nc1ccc(C(C)=O)cc1 | 0.594
Cc1cccc(NC(=O)C2SC(=Nc3c(C)cccc3C)C(C(=O)N3CCOCC3)=C2N)c1 (stereo not shown) | 12.8
CCNC(=O)c1cccc(NC(=O)C2CC(=O)N(CCc3ccccc3)C2)c1 (stereo not shown) | 6.43
COc1ccc(C(=O)NC(=S)Nc2cccc(S(=O)(=O)N3CCOCC3)c2)cc1 | 9.36

Reference: PMC4336329 (PLoS ONE, 2015)
